Drawing on patent CN110964118A, this text covers 结合率 (percent of cells bound) for 1 molecule.

Assay [1] has as its target T1, CD24 on the surface of human liver cancer cells (Huh-7, BEL-7402, shCD24 Huh-7) (human) (UniProt P25063).
T1 sequence (looked up): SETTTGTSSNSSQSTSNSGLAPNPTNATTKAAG
Put plainly: flow cytometry on Huh-7 cells, 250 nmol/L antibody, FITC anti-human IgG(H+L). On the technique in general: A flow cytometer gives signals particle by particle.

Assay [2] has as its target T1, CD24 on the surface of human liver cancer cells (Huh-7, BEL-7402, shCD24 Huh-7) (human). Put plainly: flow cytometry on BEL-7402 cells, 250 nmol/L antibody, FITC anti-human IgG(H+L).
Assay [3] has the same target. The experiment in a line: flow cytometry on CD24 knock-down Huh-7 (shCD24 Huh-7) cells, 250 nmol/L antibody, FITC anti-human IgG(H+L).

B1: 靶向CD24的双特异性融合抗体cG7-sTGFBR2 (anti-CD24 humanized chimeric antibody cG7 fused at the heavy chain C-terminus via Gly4Ser to the human TGFBR2 extracellular domain … (bispecific antibody, human IgG1, kappa)
heavy: QVKLEESGGGLVQPGGSLKISCAASGFDFSRYWMSWVRQAPGKGLEWIGEINPDSSTINYTPSLRDKFIISRDNAKNTLYLQMSKVRYEDTSLYYCARQGDYWGQGTSVTVSSASASTKGPSVFPLAPSSKSTSGGTAALGCLVKDYFPEPVTVSWNSGALTSGVHTFPAVLQSSGLYSLSSVVTVPSSSLGTQTYICNVNHKPSNTKVDKRV[human IgG1 Fc cut from this listing]GGGGSGSTIPPHVQKSVNNDMIVTDNNGAVKFPQLCKFCDVRFSTCDNQKSCMSNCSITSICEKPQEVCVAVWRKNDENITLETVCHDPKLPYHDFILEDAASPKCIMKEKKKPGETFFMCSCSSDECNDNIIFSEEYNTSNPD
light: DIVMTQTPLSLSVTIGQPASISCKSSQSLLHSDGKTYLNWLLQRPGQSPKRLIYLVSKLDSGVPDRFTGSGSGTDFTLKVSRVEAEDLGVYYCWQGAHFPYTFGGGTKLEIKVDTVAAPSVFIFPPSDEQLKSGTASVVCLLNNFYPREAKVQWKVDNALQSGNSQESVTEQDSKDSTYSLSSTLTLSKADYEKHKVYACEVTHQGLSSPVTKSFNRGEC
For the molecule B1, the values for the 结合率 (percent of cells bound) in assay [1], in assay [2] and in assay [3] were 86.9%, 44% and 28.6%, respectively.
